Source: PubChem BioAssay AID485344 (National Center for Advancing Translational Sciences (NCATS), 2010)
Hit rate of the full screen: of about 340,000 compounds, about 6,900 (2%) were called active. Rule as the data show it: active = inhibition above about 30%; inactive = below that, where a call was filed. The entries are a selection whose mix differs from that of the whole data set. Entries without a call were filed so in the source. Peptide text beside a SMILES is read from it. * marks the point of attachment. Boc = CC(C)(C)OC(=O)*

Biological target: D(2) dopamine receptor (Homo sapiens) (UniProt P14416)
Sequence of UniProt P14416 (P14416 whole entry, looked up): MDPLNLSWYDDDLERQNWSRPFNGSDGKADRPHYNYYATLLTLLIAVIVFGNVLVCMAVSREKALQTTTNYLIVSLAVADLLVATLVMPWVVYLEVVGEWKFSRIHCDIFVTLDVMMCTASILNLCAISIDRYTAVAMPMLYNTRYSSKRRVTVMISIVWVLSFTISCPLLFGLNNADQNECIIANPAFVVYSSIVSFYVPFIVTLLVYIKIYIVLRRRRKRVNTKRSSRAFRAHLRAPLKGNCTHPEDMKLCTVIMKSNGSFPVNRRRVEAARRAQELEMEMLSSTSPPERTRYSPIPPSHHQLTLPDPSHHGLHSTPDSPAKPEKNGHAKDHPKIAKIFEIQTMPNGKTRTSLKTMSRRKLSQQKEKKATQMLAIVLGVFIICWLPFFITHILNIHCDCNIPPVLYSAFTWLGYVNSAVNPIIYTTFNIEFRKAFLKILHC
Experiment: HTS Assay for Allosteric Antagonists of the Human D2 Dopamine Receptor: Primary Screen for Antagonists; also: 0% is about no effect
Details: HEK293 TREx D2 cells, calcium flux, dopamine EC80; at 10 µM; stronger effect = higher value
Outline: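 Inhibition of EC80 dopamine-driven calcium flux, recorded kinetically, defines activity here; cells are a tetracycline-induced HEK293 T-REx line expressing force-coupled D2.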

Compound	inhibition
CN(C)CCNC(=O)c1ccc2nc(CCc3ccccc3)oc2c1	-10.2%
CC(C)(C)OC(=O)N1CCC(c2c(C(=O)Nc3ccc4c(c3)OCO4)cnn2-c2ccc(F)cc2F)CC1	2.18%
COc1ccc(NC(=O)/C(C#N)=C/c2ccc(C)o2)cc1	4.08%
Cc1cc(-c2ccc(C)c(S(=O)(=O)N(Cc3cccs3)C(C)C)c2)on1	-5.38%
CCN(CC)CCNC(=O)c1cc2cc(Br)ccc2s1	active: 50.3%
COc1ccc(-n2c(=O)c3sc4ccccc4c3n(CC(=O)N3CCCC3)c2=O)cc1	-4.3%
CCn1cc(S(=O)(=O)c2cccc(C)c2)c(=O)c2cc(F)c(N3CCCCC3C)cc21 (configuration not stated)	-20.1%
Cc1nc(-c2ccc(C)c(N3CCN(C(=O)Nc4ccc(Br)cc4)CC3)c2)no1	-4.49%
COc1ccc(-n2c(SCC(=O)N3CCCc4ccccc43)nc3c([nH]c4ccccc43)c2=O)cc1	8.35%
COc1ccc(-c2cn3c(n2)sc2cc(C(=O)Nc4ccccc4F)ccc23)cc1	17.2%
CCOc1ccc(NC(=O)CCS(=O)(=O)c2ccc3nc(C)sc3c2)cc1	-4.25%
c1coc(-c2nc3ccccn3c2Nc2ccc3c(c2)OCCO3)c1	-10%
COc1cc(Cl)c(C)cc1NC(=O)c1cnn(-c2ccc(C)cc2)c1-n1cccc1	-6.02%
COc1ccc(OC)c(S(=O)(=O)Nc2cc3c(C(C)=O)c(C)oc3c3ccccc23)c1	8.39%
COC(=O)c1c(NC(=O)COc2cc(C)c(Cl)c(C)c2)sc2c1CCCC2	2.75%
COc1cccc(C2CC(=O)Nc3c2c(=O)n(C)c2ncnn32)c1OC (configuration not stated)	7.17%
COc1ccc(-c2nnc(SCC(=O)Nc3ccc(C(C)=O)cc3)nc2-c2ccc(OC)cc2)cc1	-21.2%
CCOc1ccc(NS(=O)(=O)c2ccc3c(c2)CCN3C(C)=O)cc1	4.55%
Cc1ccc(OCC(=O)N(Cc2ccco2)C2CCS(=O)(=O)C2)cc1 (configuration not stated)	26.3%
Cc1ccc(S(=O)(=O)NCC2CCC(C(=O)N(C)Cc3ccccc3)CC2)cc1 (configuration not stated)	10.5%
CC(Oc1ccc(F)cc1)C(=O)Nc1cc(-c2ccc(F)c(F)c2)no1 (configuration not stated)	8.09%
CCc1nnc2c(NCCc3ccc(OC)c(OC)c3)nc3ccccc3n12	2.75%
Cc1ccc(C)c(N2CCN(C(=O)CCS(=O)(=O)c3ccc4c(c3)CC(=O)N4C)CC2)c1	-1.19%
CCOc1ccc(CCNC(=O)c2c(C)oc3ncnc(N4CCOCC4)c23)cc1	4.81%

Compound	inhibition
Cc1cc(C)cc(NC(=O)CN(C)S(=O)(=O)c2ccc3[nH]c4c(c3c2)CCCC4)c1	-3.98%
Cc1ccc(NC(=O)CN2C(=O)COc3ccc(S(=O)(=O)N4CCCCCC4)cc32)cc1C	15.4%
COc1ccc(CCNCC(=O)Nc2ccc(C)c(S(=O)(=O)N(C)C)c2)cc1	active: 32.8%
CCOc1cccc(CNc2ccc(O)cc2)c1OCc1ccccc1Cl	-1.89%
N#C/C(=C\c1ccc(-c2ccc(F)cc2F)o1)c1nc2ccccc2[nH]1	-15.7%
COc1ccc(CNC(=O)c2ccc3[nH]c(C)c(C)c3c2)c(OC)c1	-4.39%
Cc1cc(C)cc(NC(=O)c2cccc(NC3=NC4CS(=O)(=O)CC4S3)c2)c1 (configuration not stated)	active: 34.1%
COc1ccc(C(=O)Nc2ccc(OCc3cc(=O)n4ccccc4n3)cc2)cc1	0.822%
Cc1ccc(-n2nnnc2C2CCN(S(=O)(=O)c3ccc(OC(F)(F)F)cc3)CC2)cc1	-21.2%
Cc1n[nH]c(C)c1S(=O)(=O)N(CC(=O)NCc1ccccc1Cl)c1ccc(C(C)C)cc1	19.9%
CCOc1ccccc1CNC(=O)CCc1cn(Cc2ccc(Cl)cc2)c2ccccc12	20.1%
CCN(C(=O)Cn1c(=O)oc2cc(S(=O)(=O)N3CCCC3)ccc21)c1cccc(C)c1	-9.95%
CC(C)Oc1ccc(CNC(=O)CCn2c(=O)c3cccn3c3ccc(F)cc32)cc1	25.4%
O=C(Nc1ccc2c(c1)N(C1CCCC1)C(=O)c1ccccc1S2)c1cccc(F)c1	-15.2%
COc1cccc(-n2c(=O)c3c(C)c(C(=O)N(C)C)sc3n(CC(=O)Nc3ccc(C)cc3Cl)c2=O)c1	-4.62%
Cc1c(C)n(Cc2ccccc2)c2ccc(C(=O)NCCc3ccccc3Cl)cc12	14.1%
CC(C)OCCCNC(=O)CN1C(=O)CSc2ccc(S(=O)(=O)N3CCCCC3)cc21	-6.03%
COc1cccc(CNC(=O)C2CCCN(c3ncnc4onc(-c5ccc(F)cc5)c34)C2)c1 (configuration not stated)	6.06%
O=C(NCCc1csc(-c2cccc(F)c2)n1)c1ccc(Br)o1	10.2%
Cc1ccc(Cl)cc1NCc1nnc2n1CCCCC2	14.3%
O=C1CC(c2nc(-c3cccc(Cl)c3)no2)CN1c1ccc2c(c1)OCCO2 (configuration not stated)	11.8%
CC(C)(C)OC(=O)N1CCCC1C(=O)NC(Cc1ccccc1)C(=O)O (stereo not drawn) (Boc-Pro-Phe-OH; configuration not given here)	active: 31.8%
CC(=O)N1c2ccccc2C(=O)C1N1CCN(c2ccc(F)cc2)CC1 (configuration not stated)	-11.9%
